This note sets out measurements from PubChem BioAssay AID248 (DTP/NCI, 2004).

Several values for one entry are separate records, joined by “and”; a condition that tells them apart may be missing. Equal entries are not always repeated. Toxic doses and inconclusive results are not listed.

In this experiment the test system is L1210 leukemia ip in BDF1 mice, survival T/C. Briefly: NCI In Vivo Anticancer Drug Screen. Data for tumor model L1210 Leukemia (intraperitoneal) in B6D2F1 (BDF1) mice. The following applies: endpoint: mean survival time, higher = longer survival. The method in brief: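 Antitumor effect is assessed in tumor-bearing animals. Survival in the compound arm is compared with a vehicle-dosed control arm and expressed as their quotient.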

Turning to `COc1cc2c(c(OC)c1OC)-c1ccc(OC)c(=O)cc1C(N)CC2` (stereo not drawn), the T/C is, setting by setting: (dose: 50.0 mg/kg/injection, schedule: Q01DX009 (ip), vehicle: other) 97 % of control; (dose: 75.0 mg/kg/injection, schedule: Q01DX009 (ip), vehicle: other) 102 % of control and 112 % of control; (dose: 150.0 mg/kg/injection, schedule: Q01DX009 (ip), vehicle: other) 93 % of control.
Regarding `COc1c(O)cc2c(c1OC)-c1ccc(OC)c(=O)cc1[C@@H](NC(C)=O)CC2`, the T/C was 113 % of control (dose: 0.62 mg/kg/injection, schedule: Q01DX009 (ip), vehicle: saline with Tween-80); 122 % of control (dose: 2.5 mg/kg/injection, schedule: Q01DX009 (ip), vehicle: saline with Tween-80); 153 % of control (dose: 3.75 mg/kg/injection, schedule: Q01DX009 (ip), vehicle: saline with Tween-80); 150 % of control (dose: 7.5 mg/kg/injection, schedule: Q01DX009 (ip), vehicle: saline with Tween-80); 96 % of control (dose: 10.0 mg/kg/injection, schedule: Q01DX009 (ip), vehicle: saline with Tween-80); 107 % of control (dose: 10.0 mg/kg/injection, schedule: Q01DX009 (ip), vehicle: saline). Also, the T/C (dose: 100.0 mg/kg/injection, schedule: Q04DX003 (ip), vehicle: saline) is 93 % of control.
With `COc1ccc(NC(=O)/C=C/c2ccccc2)cc1`, the T/C runs as follows: (dose: 100.0 mg/kg/injection, schedule: Q01DX009 (ip), vehicle: Klucel (hydroxypropylcellulose) (HPC)) 95 % of control; (dose: 200.0 mg/kg/injection, schedule: Q01DX009 (ip), vehicle: Klucel (hydroxypropylcellulose) (HPC)) 107 % of control; (dose: 400.0 mg/kg/injection, schedule: Q01DX009 (ip), vehicle: Klucel (hydroxypropylcellulose) (HPC)) 96 % of control.
